Experimental findings from article PMC4336329 (PLoS ONE, 2015) are described below.

The whole screen tested about 310,000 compounds, of which about 2,200 (0.71%) showed an effect of 50% or more. Effects have a minus sign here. This is one part of the list.

For the test, the target named is human ether-à-go-go-related gene (hERG) potassium channel (human, UniProt Q12809). As to the kind of experiment: primary screen, population patch clamp on CHO cells stably expressing hERG.
human ether-à-go-go-related gene (hERG) potassium channel, sequence (Q12809 whole entry, looked up): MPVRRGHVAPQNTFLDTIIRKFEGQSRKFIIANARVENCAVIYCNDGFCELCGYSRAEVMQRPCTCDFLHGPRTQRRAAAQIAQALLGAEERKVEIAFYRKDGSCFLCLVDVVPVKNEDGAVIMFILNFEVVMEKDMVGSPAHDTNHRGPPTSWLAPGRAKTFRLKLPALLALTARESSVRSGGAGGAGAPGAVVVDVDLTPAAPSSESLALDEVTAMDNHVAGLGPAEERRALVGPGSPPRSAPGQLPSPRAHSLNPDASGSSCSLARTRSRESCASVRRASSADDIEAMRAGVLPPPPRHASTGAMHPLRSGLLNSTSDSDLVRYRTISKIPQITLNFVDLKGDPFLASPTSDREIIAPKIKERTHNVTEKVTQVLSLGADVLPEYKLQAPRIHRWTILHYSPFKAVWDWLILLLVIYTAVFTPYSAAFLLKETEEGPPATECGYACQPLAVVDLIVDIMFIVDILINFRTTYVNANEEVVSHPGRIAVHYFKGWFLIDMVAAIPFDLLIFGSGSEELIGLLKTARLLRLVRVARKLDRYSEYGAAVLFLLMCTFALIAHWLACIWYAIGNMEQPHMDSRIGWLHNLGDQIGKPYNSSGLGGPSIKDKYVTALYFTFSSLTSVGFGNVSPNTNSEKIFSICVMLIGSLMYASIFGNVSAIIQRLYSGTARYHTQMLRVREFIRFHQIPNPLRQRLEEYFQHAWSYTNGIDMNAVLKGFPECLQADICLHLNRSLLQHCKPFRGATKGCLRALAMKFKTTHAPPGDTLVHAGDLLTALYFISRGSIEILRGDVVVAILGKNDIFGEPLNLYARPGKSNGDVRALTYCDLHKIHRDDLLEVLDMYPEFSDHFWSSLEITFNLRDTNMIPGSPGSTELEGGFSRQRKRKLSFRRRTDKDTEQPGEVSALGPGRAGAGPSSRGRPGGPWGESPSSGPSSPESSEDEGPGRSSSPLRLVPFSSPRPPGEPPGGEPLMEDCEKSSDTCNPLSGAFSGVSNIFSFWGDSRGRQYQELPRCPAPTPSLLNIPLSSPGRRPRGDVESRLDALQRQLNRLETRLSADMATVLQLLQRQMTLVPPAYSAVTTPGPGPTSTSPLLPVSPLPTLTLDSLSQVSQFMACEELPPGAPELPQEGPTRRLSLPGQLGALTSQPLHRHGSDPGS
Consider `COC(=O)C1C(=O)NC(SC)=C(C#N)C1c1ccccc1F` (centres unmarked), for which the “hERG current change (%, negative = inhibition) at 1uM” value is recorded as 5.08%. In the case of `O=[N+]([O-])c1ccc(N(CC2CO2)S(=O)(=O)c2ccccc2)cc1` (centres unmarked) it was 5.42%.

Regarding `CCc1nnc(NC(=O)c2cccnc2SC)s1`, the “hERG current change (%, negative = inhibition) at 1uM” value is 2.02%. In the case of `COC(=O)c1c(N)nc(C)n1-c1ccc(OC)cc1` it was 16.2%. In the case of `COc1ccccc1N1CCN(C(=O)CCn2c(=O)[nH]c3ccsc3c2=O)CC1` it was 9.17%; in that of `O=C1c2ccccc2NC(c2ccccc2O)N1O` (centres unmarked), 16%; in that of `CC(NC(=S)Nc1c(Br)cccc1OC(F)F)C(C)(C)C` (centres unmarked), 4.69%. In the case of `COc1ccc(CC2c3cc(OC)c(OC)cc3CC[N+]2(C)CCC(=O)OCCCCCOC(=O)CC[N+]2(C)CCc3cc(OC)c(OC)cc3C2Cc2ccc(OC)c(OC)c2)cc1OC.O=S(=O)([O-])c1ccccc1` (centres unmarked) it was 11.8%. As for `CC1CC(C)CN(CCCNC(=O)c2ccc3nc(N4CCCCC4)sc3c2)C1` (centres unmarked), the “hERG current change (%, negative = inhibition) at 1uM” value is listed as -12.1%. In the case of `CC(SCc1ccccc1)C(=O)N/N=C/c1ccc(OCC(=O)NCc2ccco2)cc1` (centres unmarked) it was 8.33%; in that of `COc1cccc(CNS(=O)(=O)c2ccc3c(c2)N(C(C)=O)CCO3)c1`, 10.2%.

In the case of `O=C(NCc1ccccc1)C1=C[C@H](c2ccc(C(F)(F)F)cc2)C[C@H](OCCCCO)O1`, the “hERG current change (%, negative = inhibition) at 1uM” value came out at 4.91%. In the case of `O=C(Cn1cc2c(n1)CCCC2)NCCCN1CCN(Cc2ccccc2)CC1` it was -7.47%; in that of `CC(CNC(=O)C1CCCCC1)NC(=O)C1CCCCC1` (centres unmarked), 1.44%. In the case of `CC1CCN(c2c(NCC3CCC(C(=O)NCc4ccccc4)CC3)c(=O)c2=O)CC1` (centres unmarked) it was 13.1%; in that of `CC(C)(C)c1ccc(C(=O)N/C(=C/c2cccs2)C(=O)NCc2ccco2)cc1`, 10.9%. In the case of `Cc1cccc(NC(=O)CSc2ncnc3sc(C)cc23)c1`, the “hERG current change (%, negative = inhibition) at 1uM” value came to 13.4%. In the case of `Cc1cc(NC(=O)c2cc(-c3ccc4c(c3)OCO4)on2)n(-c2ccccc2)n1` it was 10.4%; in that of `O=C(O)CCc1ccc(-c2ccc(F)cc2)n1CC1CCCO1` (centres unmarked), -17.8%; in that of `CCCCCCn1c(O)c(/C=N/N2CCCCCC2)c(=O)[nH]c1=O`, 6.63%. With `CCOC(=O)C1CCCN(C(=O)CSc2ccc(Br)cc2)C1` (centres unmarked), the “hERG current change (%, negative = inhibition) at 1uM” value is on record as -3.22%.

Consider `CN(C)CCOC(=O)CCCCCCCCC(=O)OCCN(C)C.Cl`, for which the “hERG current change (%, negative = inhibition) at 1uM” value came out at 9.14%. With `COc1ccc(C(=O)O)cc1S(=O)(=O)NC(C)(C)C` the figure was 19.1%; with `CCCC(=O)NNc1c2ccccc2nc2ccccc12`, 9.1%; with `CCOC(=O)C1=C(N)Oc2ccc3ccccc3c2C1c1ccc(O)cc1` (centres unmarked), 2.28%. For the compound `CCOC(=O)Nc1sc(C(=O)N(C)C)c(C)c1C(=O)OCC`, the “hERG current change (%, negative = inhibition) at 1uM” value was 5.78%.

In the case of `CN1/C(=C/C=N/NC(=O)c2ccc([N+](=O)[O-])cc2)C(C)(C)c2ccccc21`, the “hERG current change (%, negative = inhibition) at 1uM” value is given as 1.35%. With `COc1ccc(NC2=CC(c3ccc(F)cc3)N(c3ccc(OC)cc3)C2=O)cc1` (centres unmarked) the figure was 2.4%. As for `COCCCNC(=O)CSc1nc2ccccc2c(=O)n1CCC(=O)NCCc1ccc(OC)c(OC)c1`, the “hERG current change (%, negative = inhibition) at 1uM” value is reported as 8.34%. Take `COc1ccccc1N1CC(C(=O)Nc2nnc(SCC(=O)NCC3CCCO3)s2)CC1=O` (centres unmarked): the “hERG current change (%, negative = inhibition) at 1uM” value was 10.3%. As to `COc1cc(CN2CCN(CCOCCO)CC2)cc(OC)c1OC`, the “hERG current change (%, negative = inhibition) at 1uM” value is listed as 3.59%. Turning to `Cc1cnc(C(=O)NC2CC(C)(C)Cc3c2cnn3-c2cccc(F)c2)cn1` (centres unmarked), the “hERG current change (%, negative = inhibition) at 1uM” value amounted to 3.82%. In the case of `CN(CCOc1ccc(Cl)cc1)C(=O)c1ccc2c(=O)n3c(nc2c1)CCC3` it was -0.931%; in that of `CN(C)S(=O)(=O)c1cccc(NC(=S)Nc2ccc3cn[nH]c3c2)c1`, 6.82%; in that of `Cc1ccccc1C(=O)NC(=S)NCC(=O)c1ccccc1`, 3.72%. For `C=CCN(CC=C)S(=O)(=O)c1ccc(NC(=S)NC(=O)/C=C/c2cccc3ccccc23)cc1`, the “hERG current change (%, negative = inhibition) at 1uM” value is reported as 3.67%.

For the compound `O=C(CSc1nnc(-c2ccc(S(=O)(=O)N3CCCC3)cc2)o1)NCc1ccco1`, the “hERG current change (%, negative = inhibition) at 1uM” value is 7.71%. With `O=C(C1CCCO1)N1CCN(C(=S)Nc2ccc(F)cc2)CC1` (centres unmarked) the figure was -4.91%; with `COc1ccc(C(C(=O)NC2CCCC2)N(C(=O)c2csnn2)C2CC2)cc1` (centres unmarked), -5.74%; with `O=C(CCCSc1nc2ccccc2c(=O)[nH]1)c1ccc(F)cc1`, 2.7%. With `CCOC(=O)CCc1nc2ccccc2[nH]c1=O` the figure was 4.53%; with `COC(=O)C1CCN(S(=O)(=O)c2ccc(Br)s2)CC1`, 7.8%.

For the compound `CC1CCCCC1NC(=O)NC(=O)COC(=O)c1cncc(Br)c1` (centres unmarked), the “hERG current change (%, negative = inhibition) at 1uM” value amounted to 4.7%. With `OC(COc1ccc2ccccc2c1)CN1CCN(c2ccc(F)cc2)CC1` (centres unmarked) the figure was -1.08%.
